Patent US20230322822A1, “ARYL PHOSPHOROUS OXIDE COMPOUNDS AND USE THEREOF” (Chengdu Di'ao Jiuhong Pharmaceutical Factory, priority 2020, published 2023)

Tests used:
[1] = tested on: Ba/F3 cells expressing EGFR-T790M/Del19; assay: Cell anti-proliferation test 1 (CTG), BaF3 EGFR-T790M/Del19; settings: Mus musculus, BaF3, 72 h, read-out: EGFR-T790M/Del19 IC50
[2] = tested on: Ba/F3 cells expressing EGFR-C797S/T790M/Del19; assay: Cell anti-proliferation test 1 (CTG), BaF3 EGFR-C797S/T790M/Del19; settings: Mus musculus, BaF3, 72 h, read-out: EGFR-C797S/T790M/Del19 IC50
[3] = tested on: Ba/F3 cells expressing EGFR-C797S/T790M/L858R; assay: Cell anti-proliferation test 1 (CTG), BaF3 EGFR-C797S/T790M/L858R; settings: Mus musculus, BaF3, 72 h, read-out: EGFR-C797S/T790M/L858R IC50
[4] = tested on: Ba/F3 cells expressing EGFR-WT; assay: Cell anti-proliferation test 1 (CTG), BaF3 EGFR-WT; settings: Mus musculus, BaF3, 72 h, read-out: EGFR-WT IC50
Ba/F3-EML-4-ALK-WT = assay: Cell anti-proliferation test 3 (CTG), Ba/F3-EML-4-ALK-WT; assay type: cell-based; settings: Mus musculus, 72 h, BaF3 cells, Day 3
[5] = tested on: BaF3 EGFR-DTC(C797S/T790M/Del19) cells; assay: In-vivo pharmacodynamic study, transplanted tumor model of BaF3 EGFR-DTC(C797S/T790M/Del19) cells in nude mice; set-up: species or system BALB/c nude mice; settings: for Effect on tumor growth (in words): compound 2 and Brigatinib 25 and 50 mg/kg, compound 33 25 mg/kg
Description: The models used in this test were subcutaneous transplanted tumor models of engineered BaF3 EGFR-DTC(C797S/T790M/Del19) cells in BALB/c nude mice. The engineered BaF3 cells were cultured in vitro suspension. […] Passages were treated twice a week. When the cell number reached requirement, the cells were collected, counted and inoculated. 0.2 mL (10^6) cells (added with matrigel, 1:1 by volume) were subcutaneously inoculated in the right back of each mouse, and divided into groups for administration with 6 mice per group when the mean tumor volume reached 109 mm^3.
Administration mode and frequency: Oral gavage was carried out with an administration volume of 10 mL/kg, and the model group was administered with the same volume of solvent. The administration was once per day and continuously carried out for 14 days.
General conditions such as spirit, activity, food intake and the like of the mice were observed every day, and the weight was measured thrice every week; the short diameter (a) and the long diameter (b) of each mouse tumor were measured thrice a week with a vernier caliper, and the tumor volume was calculated according to the formula (a^2×b)/2. The Relative Tumor Volume (RTV) was calculated from the measured tumor volume, wherein RTV=Vt/V0, wherein V0 was the tumor volume at random grouping (i.e., d0) and Vt was the tumor volume at each measurement (i.e., dn). The relative tumor proliferation rate of the evaluation index of the anti-tumor activity was calculated according to the following formula: relative tumor proliferation rate T/C (%): […]
(Note: TRTV: treatment group RTV; CRTV: model control group RTV. According to the therapeutic effect evaluation standard in the Technical Guidelines for Non-clinical Research of Cytotoxic Anti-tumor Drugs Issued by National Medical Products Administration of China, the value (T/C %≤40%) was effective).

[6] = tested on: Ba/F3 cells expressing EGFR-T790M/L858R; assay: Cell anti-proliferation test 1 (CTG), BaF3 EGFR-T790M/L858R; settings: Mus musculus, BaF3, 72 h, read-out: EGFR-T790M/L858R IC50
Ba/F3-EML-4-ALK-L1196M = assay: Cell anti-proliferation test 3 (CTG), Ba/F3-EML-4-ALK-L1196M; assay type: cell-based; settings: Ba/F3 EML4-ALK-L1196M, 72 h, BaF3 cells, Day 3
[7] = Single administration toxicity test, orally intragastric administration to SD rats; assay type: in vivo; settings: for Mortality Female: 5 female rats; for Mortality Female / Mortality Male / Mortality/total number of animals: day 15; for Mortality Male: 5 male rats
Description: 8-week-old SD rats, 10 per group, male and female half, were purchased from Beijing SiPeiFu. The rats were tested after 3 days of acclimatization in this laboratory. The oral administration was performed by intragastric administration with an administration volume of 10 mL/kg. The rats were fasted and not forbidden to drink water for 17 hours before administration. The rats in the control group were given an equal volume of solvent via oral gavage. The feeding was resumed about 2 hours after the end of the administration.
Observations were made twice daily after the administration. The day of first administration was defined as day 1 of the test. The test was carried out for 14 consecutive days, and ended in day 15.

EGFR-C797S/T790M/L858R = EGFR-C797S/T790M/L858R (Homo sapiens (Human), UniProt P00533, C797S/L858R/T790M); assay: Enzymatic activity test (ADP-Glo) EGFR-C797S/T790M/L858R; assay type: biochemical; settings: kinase
Description: • 1. […] Test information:
To assess the effect of compounds on the activity of wild-type and mutant EGFR kinases, kinase activity was tested by measuring ATP consumption in an enzymatic reaction using an ADP-Glo (Promega Corporation) kit. Samples to be tested were dissolved in DMSO and diluted in a gradient. In a microplate, an EGFR kinase, a reaction buffer (containing Tris-HCl with a pH of 7.5, MgCl2, DTT and BSA), a kinase substrate Poly(Glu4, Tyr1) and a sample (a total volume of 20 μL per well) were added per well, while a blank control (no enzyme and sample) and a negative control (no sample) were set up; incubated for 15 minutes at 23° C.; added with 5 μL of ATP, and reacted at 23° C. for 60 minutes; added with ADP-Glo Reagent, and continuously reacted for 40 minutes at room temperature to inactivate the redundant ATP; then, added with a Kinase Detection Reagent, and reacted at room temperature for 30 minutes, then the chemiluminescence intensity L of each well was measured. […] IC50 values were calculated according to the above calculation using 4Parameter Logistic Model in XLfit software. • 3.

[8] = 25 mg/kg oral gavage once per day
[9] = 25 mg/kg oral gavage once per day, Day 3
[10] = 25 mg/kg oral gavage once per day, Day 5
[11] = 25 mg/kg oral gavage once per day, Day 7
[12] = 25 mg/kg oral gavage once per day, Day 10
[13] = 25 mg/kg oral gavage once per day, Day 12
[14] = 50 mg/kg oral gavage once per day

Sequence of EGFR-C797S/T790M/L858R (P00533 25-1210 T790M/C797S/L858R): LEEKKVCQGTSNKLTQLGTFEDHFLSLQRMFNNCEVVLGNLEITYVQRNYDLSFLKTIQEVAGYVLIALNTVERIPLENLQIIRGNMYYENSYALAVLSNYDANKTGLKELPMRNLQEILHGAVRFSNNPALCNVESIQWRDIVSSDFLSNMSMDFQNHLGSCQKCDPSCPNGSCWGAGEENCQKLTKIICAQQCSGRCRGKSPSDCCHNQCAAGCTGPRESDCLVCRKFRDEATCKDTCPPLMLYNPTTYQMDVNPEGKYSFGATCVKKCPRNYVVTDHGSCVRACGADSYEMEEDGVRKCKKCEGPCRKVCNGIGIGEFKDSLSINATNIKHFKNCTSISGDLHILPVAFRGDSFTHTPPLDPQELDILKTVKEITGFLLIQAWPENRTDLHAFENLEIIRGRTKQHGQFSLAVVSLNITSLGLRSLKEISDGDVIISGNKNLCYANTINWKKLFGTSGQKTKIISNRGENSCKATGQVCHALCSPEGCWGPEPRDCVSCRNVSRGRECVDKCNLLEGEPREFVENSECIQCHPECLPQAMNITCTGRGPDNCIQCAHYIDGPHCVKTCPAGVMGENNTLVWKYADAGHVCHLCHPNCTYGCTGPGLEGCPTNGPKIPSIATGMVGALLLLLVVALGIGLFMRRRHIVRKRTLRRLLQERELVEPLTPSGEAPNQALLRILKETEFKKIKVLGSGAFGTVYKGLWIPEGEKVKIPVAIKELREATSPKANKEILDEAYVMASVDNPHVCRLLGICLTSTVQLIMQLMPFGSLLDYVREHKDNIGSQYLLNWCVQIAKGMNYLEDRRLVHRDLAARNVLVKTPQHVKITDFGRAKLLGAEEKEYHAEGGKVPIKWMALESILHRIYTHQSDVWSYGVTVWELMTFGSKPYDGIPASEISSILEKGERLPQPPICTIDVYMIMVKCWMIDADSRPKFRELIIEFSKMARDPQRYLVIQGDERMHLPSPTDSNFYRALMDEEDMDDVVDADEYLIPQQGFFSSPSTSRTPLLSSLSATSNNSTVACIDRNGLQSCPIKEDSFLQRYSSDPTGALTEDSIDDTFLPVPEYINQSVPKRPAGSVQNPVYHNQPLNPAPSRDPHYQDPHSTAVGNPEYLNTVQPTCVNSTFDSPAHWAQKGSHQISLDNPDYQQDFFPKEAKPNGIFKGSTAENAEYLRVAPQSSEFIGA

## COc1cc(N2CCC(N3CCN(C)CC3)CC2)c(Cl)cc1Nc1ncc(Br)c(Nc2ccc(Cl)cc2P(C)(C)=O)n1 [Compound 38]
[1]
  IC50: 26.3 nM

## COc1cc(N2CCC(N3CCN(C)CC3)CC2)c(C)cc1Nc1ncc(C)c(Nc2ccc(C)cc2P(C)(C)=O)n1 [Compound 4]
[2]
  IC50: 50.5 nM
[3]
  IC50: 204 nM
[4]
  IC50: 815 nM
[1]
  IC50: 43.8 nM

## COc1cc(N2CCC(N3CCOCC3)CC2)c(C)cc1Nc1ncc(Br)c(Nc2ccc(C)cc2P(C)(C)=O)n1 [Compound 30]
[2]
  IC50: 25.8 nM
[3]
  IC50: 62.9 nM
[4]
  IC50: 1650 nM
[1]
  IC50: 29.5 nM

## COc1cc(N2CCC(N3CCN(C)CC3)CC2)c(C)cc1Nc1ncc(Br)c(Nc2ccc(Cl)cc2P(C)(C)=O)n1 [Compound 33]
[2]
  IC50: 22.9 nM
Ba/F3-EML-4-ALK-WT
  IC50: 10.7 nM
[5]; [8]
  Tumor volume Day 0: 109 mm^3
  Tumor volume Day 14: 16 mm^3
[5]; [9]
  Relative tumor proliferation rate T/C Day 3: 52.56%
  Tumor volume Day 3: 75 mm^3
[5]; [10]
  Relative tumor proliferation rate T/C Day 5: 29.21%
  Tumor volume Day 5: 52 mm^3
[5]; [11]
  Relative tumor proliferation rate T/C Day 7: 10.32%
  Tumor volume Day 7: 39 mm^3
[5]; [12]
  Relative tumor proliferation rate T/C Day 10: 4.84%
  Tumor volume Day 10: 27 mm^3
[5]; [13]
  Relative tumor proliferation rate T/C Day 12: 2.56%
  Tumor volume Day 12: 21 mm^3
[5]
  Effect on tumor growth (in words): obviously inhibit the tumor growth
[3]
  IC50: 90.7 nM
[6]
  IC50: 24.7 nM
Ba/F3-EML-4-ALK-L1196M
  IC50: 16.2 nM
[4]
  IC50: 966 nM
[1]
  IC50: 25.8 nM

## Cc1ccc(Nc2nc(Nc3cc(C)c(N4CCC(N5CCN(C)CC5)CC4)cc3OCC(F)(F)F)ncc2Br)c(P(C)(C)=O)c1 [Compound 23]
[2]
  IC50: 34.1 nM
[3]
  IC50: 129 nM
[4]
  IC50: 1610 nM
[1]
  IC50: 54.3 nM

## COc1cc(N2CCN(C)CC2)c(C)cc1Nc1ncc(Br)c(Nc2ccc(C)cc2P(C)(C)=O)n1 [Compound 29]
[2]
  IC50: 32.2 nM
Ba/F3-EML-4-ALK-WT
  IC50: 8.7 nM
[3]
  IC50: 125 nM
[6]
  IC50: 105 nM
Ba/F3-EML-4-ALK-L1196M
  IC50: 15.2 nM
[4]
  IC50: 1490 nM
[1]
  IC50: 40.5 nM

## COc1cc(N2CCC(N3CCN(C)CC3)CC2)c(C)cc1Nc1ncc(Br)c(Nc2ccc(C(C)C)cc2P(C)(C)=O)n1 [Compound 36]
[2]
  IC50: 45.1 nM
[3]
  IC50: 95.9 nM
[6]
  IC50: 32.1 nM
[4]
  IC50: 2600 nM
[1]
  IC50: 48.5 nM

## CCc1cc(Nc2ncc(Br)c(Nc3ccc(C(C)C)cc3P(C)(C)=O)n2)c(OC)cc1N1CCC(N2CCN(C)CC2)CC1 [Compound 37]
[2]
  IC50: 87 nM
[3]
  IC50: 96.8 nM
[6]
  IC50: 18.9 nM
[4]
  IC50: 4770 nM
[1]
  IC50: 41 nM

## COc1cc(N2CCC(N3CCN(C)CC3)CC2)ccc1Nc1ncc(Cl)c(Nc2ccccc2P(C)(C)=O)n1 [Brigatinib, reference compound]
[7]; 25 mg/kg single dose
  Mortality Female: 0
  Mortality Male: 0
  Mortality/total number of animals: 0/10
[7]; 75 mg/kg single dose
  Mortality Female: 1
  Mortality Male: 1
  Mortality/total number of animals: 2/10
[7]; 100 mg/kg single dose
  Mortality Female: 3
  Mortality Male: 1
  Mortality/total number of animals: 4/10
[7]; 125 mg/kg single dose
  Mortality Female: 4
  Mortality Male: 2
  Mortality/total number of animals: 6/10
[7]; 150 mg/kg single dose
  Mortality Female: 5
  Mortality Male: 4
  Mortality/total number of animals: 9/10
[7]; 200 mg/kg single dose
  Mortality Female: 5
  Mortality Male: 5
  Mortality/total number of animals: 10/10
[7]; both sexes, Sprague-Dawley, rat, in vivo, po, SD rats, single orally intragastric administration, read-out: Maximum Tolerated Dose (MTD)
  MTD at 14 days: < 75 mg/kg
[5]; [8]
  Tumor volume Day 0: 109 mm^3
  Tumor volume Day 14: 1046 mm^3
[5]; [9]
  Tumor volume Day 3: 139 mm^3
[5]; [10]
  Tumor volume Day 5: 152 mm^3
[5]; [11]
  Tumor volume Day 7: 276 mm^3
[5]; [12]
  Tumor volume Day 10: 476 mm^3
[5]; [13]
  Tumor volume Day 12: 755 mm^3
[5]; [14]
  Tumor volume Day 0: 109 mm^3
  Tumor volume Day 14: 509 mm^3
[5]; 50 mg/kg oral gavage once per day, Day 3
  Tumor volume Day 3: 115 mm^3
[5]; 50 mg/kg oral gavage once per day, Day 5
  Tumor volume Day 5: 121 mm^3
[5]; 50 mg/kg oral gavage once per day, Day 7
  Tumor volume Day 7: 146 mm^3
[5]; 50 mg/kg oral gavage once per day, Day 10
  Tumor volume Day 10: 220 mm^3
[5]; 50 mg/kg oral gavage once per day, Day 12
  Tumor volume Day 12: 378 mm^3
[5]
  Effect on tumor growth (in words): did not significantly inhibit the tumor growth

## COc1cc(N2CCOCC2)c(C)cc1Nc1ncc(Br)c(Nc2ccc(C)cc2P(C)(C)=O)n1 [Compound 28]
[2]
  IC50: 35.5 nM
[3]
  IC50: 134 nM
[4]
  IC50: 1210 nM
[1]
  IC50: 50.6 nM

## COc1cc(N2CCC(N3CCN(C)CC3)CC2)c(Cl)cc1Nc1ncc(Br)c(Nc2ccc(F)cc2P(C)(C)=O)n1 [Compound 35]
[2]
  IC50: 19.4 nM
Ba/F3-EML-4-ALK-WT
  IC50: 18.2 nM
[3]
  IC50: 127 nM
[6]
  IC50: 46.1 nM
Ba/F3-EML-4-ALK-L1196M
  IC50: 14.7 nM
[4]
  IC50: 2920 nM
[1]
  IC50: 23.4 nM

## C=CC(=O)Nc1cc(Nc2ncc(Cl)c(Nc3ccc(C)cc3P(C)(C)=O)n2)c(OC)cc1N1CCC(N2CCN(C)CC2)CC1 [Compound 25]
[1]
  IC50: 34.2 nM

## COc1cc(N2CCC(N3CCN(C)CC3)CC2)c(C(C)C)cc1Nc1ncc(Br)c(Nc2ccc(C)cc2P(C)(C)=O)n1 [Compound 13]
[2]
  IC50: 36.4 nM
[3]
  IC50: 168 nM
[4]
  IC50: 691 nM
[1]
  IC50: 29 nM

## Cc1ccc(Nc2nc(Nc3cc(C)c(N4CCC(N5CCN(C)CC5)CC4)cc3OC(F)F)ncc2Br)c(P(C)(C)=O)c1 [Compound 24]
[2]
  IC50: 24.5 nM
EGFR-C797S/T790M/L858R
  IC50: 54 nM
[3]
  IC50: 54 nM
[4]
  IC50: 887 nM
[1]
  IC50: 23.5 nM
